# About 14,000 (4.5%) of roughly 310,000 compounds showed an effect of 50% or more. The effect is printed as a negative number. This is one part of the list.
# Molecular target: human ether-à-go-go-related gene (hERG) potassium channel (human, UniProt Q12809)
# Assay: primary screen, population patch clamp on CHO cells stably expressing hERG
# 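Note: peak tail current of the secondary pulse compared with the same well before compound.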
# Chain of human ether-à-go-go-related gene (hERG) potassium channel (Q12809 whole entry, looked up): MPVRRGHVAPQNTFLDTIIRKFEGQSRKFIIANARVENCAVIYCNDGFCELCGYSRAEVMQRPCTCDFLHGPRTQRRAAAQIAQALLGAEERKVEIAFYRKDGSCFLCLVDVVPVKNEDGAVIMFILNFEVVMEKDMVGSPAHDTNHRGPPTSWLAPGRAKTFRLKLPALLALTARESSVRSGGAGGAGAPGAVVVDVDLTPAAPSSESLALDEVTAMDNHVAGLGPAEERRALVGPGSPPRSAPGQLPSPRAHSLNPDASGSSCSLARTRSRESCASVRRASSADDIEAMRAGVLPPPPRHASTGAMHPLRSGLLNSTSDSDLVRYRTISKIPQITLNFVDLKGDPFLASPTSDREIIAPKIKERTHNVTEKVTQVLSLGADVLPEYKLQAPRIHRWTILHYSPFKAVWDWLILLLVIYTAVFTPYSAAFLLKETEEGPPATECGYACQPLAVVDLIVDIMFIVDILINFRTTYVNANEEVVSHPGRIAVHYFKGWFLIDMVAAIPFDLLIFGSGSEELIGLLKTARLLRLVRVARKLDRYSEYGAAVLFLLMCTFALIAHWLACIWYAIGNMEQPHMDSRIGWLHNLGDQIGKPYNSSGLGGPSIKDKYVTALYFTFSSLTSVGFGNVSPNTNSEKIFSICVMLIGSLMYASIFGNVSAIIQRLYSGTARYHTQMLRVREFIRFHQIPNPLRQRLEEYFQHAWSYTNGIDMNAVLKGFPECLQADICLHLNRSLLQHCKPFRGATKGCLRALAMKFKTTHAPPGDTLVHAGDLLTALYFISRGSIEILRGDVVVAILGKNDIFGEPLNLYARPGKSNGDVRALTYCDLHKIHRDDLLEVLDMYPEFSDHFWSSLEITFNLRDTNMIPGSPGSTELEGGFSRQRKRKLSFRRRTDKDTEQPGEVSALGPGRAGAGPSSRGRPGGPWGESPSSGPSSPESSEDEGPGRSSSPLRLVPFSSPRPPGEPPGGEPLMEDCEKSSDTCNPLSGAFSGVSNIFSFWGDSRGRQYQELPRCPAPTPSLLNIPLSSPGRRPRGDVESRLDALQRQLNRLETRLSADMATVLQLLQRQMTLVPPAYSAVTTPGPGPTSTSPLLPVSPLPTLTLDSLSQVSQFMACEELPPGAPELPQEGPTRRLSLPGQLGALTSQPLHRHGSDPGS
row,SMILES,"hERG current change (%, negative = inhibition) at 10uM"
1,CCOC(=O)C1=C(c2ccccc2)NC(SC)=C(C#N)C1c1ccco1 (stereo not shown),-21.4%
2,COC(=O)c1cn(-c2ccc(Cl)cc2)c(=O)c2ccccc12,-12.9%
3,COc1ccccc1NC(=O)c1ccc(C(=O)c2ccccc2)o1,-69.4%
4,O=C(C[N+]1(CC#Cc2ccccc2)CCCCC1)c1ccc(Cl)cc1.[Br-],-31.2%
5,CS(=O)(=O)c1ccc(Cl)c(NC(=O)COC(=O)C23CC4CC(CC(C4)C2)C3)c1,-6.48%
6,Cc1cccc2sc(N(CCCN(C)C)C(=O)c3sc4ccccc4c3Cl)nc12.Cl,-13.5%
7,COc1ccc(OC)c(NC(=O)c2cc(-c3c(C)cc(C)cc3O)n[nH]2)c1,36.6%
8,O=S(=O)(Nc1ccc(Br)cc1)c1cccc(NC(=S)NCCN2CCOCC2)c1,3.16%
9,CC(C)Cc1ccc(CN2CCCC(NC(=O)c3ccoc3)C2)cc1 (stereo not shown),-70.9%
10,CCCCn1nnnc1SCC(=O)NCc1ccccc1,1.07%
11,COc1ccc(Cl)cc1C(=O)NNC(=S)NC(=O)c1ccc(F)c(F)c1,21%
12,O=C(O)c1ccc(/C=C2\SC(=S)N(NC(=O)c3ccccc3[N+](=O)[O-])C2=O)cc1,12.4%
13,CCc1cc(=O)oc2cc(C)cc(OC(=O)c3ccco3)c12,2.73%
14,c1ccc(-c2ccnc3nc(-n4cccc4)nn23)cc1,20%
15,Cc1cc(-c2nnc(SCC(=O)Nc3cccc(F)c3)n2N)n[nH]1,6.38%
16,COc1ccc(NC(=O)CN2CCN(c3ccccc3)CC2)cc1,1.85%
17,CCSc1nc(C)nc2sc(C)c(C)c12,14.7%
18,CC(=O)N1CCN(S(=O)(=O)c2ccc(C)cc2)C1C (stereo not shown),5.41%
19,Cc1ccccc1OCC(O)CNC1CCCC1.Cl (stereo not shown),4.67%
20,CC1(c2nnc(-c3cccc(Cl)c3)o2)CC(c2ccc(Cl)cc2)=NO1 (stereo not shown),8.43%
21,Cc1c(CCC(=O)O)c(=O)oc2cc(OCc3ccc(Br)cc3)ccc12,22.2%
22,CCOC(=O)Cc1[nH]nc2c1C(c1cccc(OC)c1OC)C(C#N)=C(N)O2 (stereo not shown),-0.21%
23,Cc1occc1C(=O)N1CCCC(Nc2ccc(C(C)C)cc2)C1 (stereo not shown),-21.1%
24,Cc1noc(/C=C/c2ccco2)c1S(=O)(=O)N1CCC(C(=O)NCc2ccco2)CC1,-30.1%
25,COc1ccc(/C=N/N2CCOCC2)cc1COc1ccc(Cl)cc1,3.02%

# From publication PMC4336329 (PLoS ONE, 2015)
